Laboratory results taken from PubChem BioAssay AID1745845 (National Center for Advancing Translational Sciences (NCATS), 2022).
Hit rate of the full screen: of about 360,000 compounds, about 2,600 (0.72%) were called active. This list was built around the results that the source calls inconclusive (neither active nor inactive); the mix of calls is not that of the screen. The call rests on the fitted dose curve; in most records, active means well fitted inhibition curve with a large enough effect; inconclusive means small, poorly fitted or top-dose-only effect; inactive means no such curve, though single readings can be large or run the other way. Where the call is inconclusive, the potency comes from a doubtful curve fit.

Test: Primary qHTS for Inhibitors of ATXN expression; further: nearly all actives have a fitted effect of over 55% in size
Settings: HEK-293 ATXN2-luciferase reporter, luminescence, 24 h; activity change, negative = inhibition: at 57 µM (top of the series)
Procedure, shortened: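 ATXN2-luciferase reporter cells (luciferase flanked by upstream and downstream ATXN2 gene portions) were treated 24 h at 37 °C with compounds at up to 57 uM. SteadyGlo luminescence gave expression; GF-AFC fluorescence gave viability.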
On the % scale 0 is the no-effect control and ±100 the full control effect; potency means the concentration at half of the fitted maximal effect; tags describe the fitted curve by direction and shape.

Activity change, negative = inhibition, inactive:
Cc1nc(Oc2ccc(F)cc2Cl)c2oc3ccccc3c2n1 -8.23%, COc1cc(NC(=O)C2CCC(CNc3c(N4CCCCC4)c(=O)c3=O)CC2)cc(OC)c1 (stereo not given) -5.4%, O=C(NCc1cccs1)c1ccc(-c2ccc(F)c(F)c2)c2ccoc12 8.96%, CCOC(=O)/C=C1\SCC(=O)N1CC(O)CN1C(=O)CS/C1=C/C(=O)OCC (stereo not given) -0.756%, CCN(CC)c1ccc(/C=N/NC(=O)c2ccoc2C)c(O)c1 -23.4%, N#CC1=C(S)N=C(N)C(c2nc(-c3ccccc3)cs2)C12CCCCC2 (stereo not given) 41.6%, O=C(CC(c1ccccc1)c1ccccc1)Nc1ccc(Cl)cn1 -30.9%, COc1ccccc1-c1nc(S(=O)(=O)c2ccc(Cl)cc2)c(N(C)C)o1 -1.09%, Cc1csc2nc(O)c(C(=O)NCCCN3CCCC3=O)c(=O)n12 0%, Cc1ccc2ccccc2c1C(O)c1ncc(-c2ccc(F)cc2)[nH]1 (stereo not given) -14%, O=C(CSC1=NCCS1)NC(c1ccccc1)c1ccccc1 -2.59%, Cc1ccn2cc(-c3ccc(NS(=O)(=O)c4ccccc4)cc3)nc2c1 48.5%, CC(=O)Nc1cc(-c2ccccc2CN(C)C)cn2c(-c3ccc(C(C)=O)cc3)cnc12 -9.92%, Clc1cccc(C[n+]2cc(-c3ccccc3)n3c2CCC3)c1 1.22%, Cc1ccccc1C(=O)Nc1ccc(N(C)C)c2ccccc12 8.24%, CCN(CC(=O)Nc1ccc(NC(C)=O)cc1)C(=O)c1cc2c(s1)CCCC2 4.35%, Cn1cc(S(=O)(=O)NCc2ccc(Cl)cc2)c(=O)n(C)c1=O 2.16%, CC(C)C[C@@H](CN1CCC[C@H]1CN1C(=O)C(=O)NC[C@@H]1Cc1ccc(O)cc1)N1C[C@H](Cc2ccccc2)N(CCc2ccccc2)C(=O)C1=O 12.2%, O=C(Cn1cnc2scc(-c3ccc(F)cc3)c2c1=O)NCC(c1ccco1)N1CCCC1 (stereo not given) 0.0221%, CCCCn1c2ccc(F)cc2c2nnc(SCCN(CC)CC)nc21 -12.7%

Potency, inconclusive:
O=C(c1ccc(N2CCN(C(=O)c3ccc(F)c(F)c3)CC2)cc1)c1cccc(F)c1 14.1 µM [inhibitor, partial curve, poor fit], CCOc1ccc2nc(N/C(N)=N/C(=S)Nc3ccc(OC)cc3)nc(C)c2c1 12.6 µM [inhibitor, partial curve, poor fit], Cc1cccc(OCC(=O)Nc2ccc(Cl)c(-c3nc4ncccc4o3)c2)c1C 39.8 µM [inhibitor, partial curve, poor fit], CCCC(C(=O)n1nc(C)cc1C)C(NS(=O)(=O)c1ccc(C)cc1)c1ccccc1 (stereo not given) 39.8 µM [inhibitor, partial curve, poor fit], Cc1ccc(/C=N/NC(=O)c2cc(C3CC3)nc3ccccc23)o1 37.7 µM [inhibitor, single point], CN1CCN(c2ccc3sc(-n4ccc5ccccc54)nc3c2)CC1 39.8 µM [inhibitor, single point], OC[C@H]1O[C@@H](n2cnc3c(NCc4ccco4)ncnc32)[C@H](O)[C@@H]1O 4.47 µM [inhibitor, full curve], O=C1C(=O)c2c(C(=O)c3ccccc3)coc2-c2ccccc21 31.6 µM [inhibitor, single point], CCN(CC)c1ncnc2c1ncn2[C@H]1CN(Cc2ccc(-c3ccccc3)cc2)C[C@@H](CO)O1 22.4 µM [inhibitor, partial curve, poor fit], Cc1ccc(-c2nnc(Nc3cccc(O)c3)c3ccccc23)cc1S(=O)(=O)N1CCOCC1 39.8 µM [inhibitor, single point], CCc1ccc(NC(=O)CCn2nc(-c3ccccc3OC)c3c(C)cc(C)nc32)cc1 35.5 µM [inhibitor, single point], COc1ccc(CCNc2nc(-c3sc(C)nc3C)cs2)cc1OC 31.6 µM [inhibitor, single point], Cc1ccc(-n2ncc(C(=O)NCc3cccs3)c2C2CCN(C(=O)OC(C)(C)C)CC2)c(C)c1 39.8 µM [inhibitor, single point], CCN1CC2=C(OC(N)=C(C#N)C2c2cccs2)/C(=C\c2cccs2)C1 (stereo not given) 22.4 µM [inhibitor, single point], O=C1NC(Nc2nc3ccccc3s2)(C(F)(F)F)C(=O)N1C1CCCCC1 (stereo not given) 35.5 µM [inhibitor, single point], CC12C=CC3(O1)C(C(=O)N1CCCOC13)C2C(=O)O (stereo not given) 8.44 µM [inhibitor, single point], CCCc1nc2ccc(C)cn2c1Cc1ccccc1OC 35.5 µM [inhibitor, single point], COc1cccc(NC(=S)N(CCCN2CCOCC2)Cc2cn(C)c3ccccc23)c1 37.7 µM [inhibitor, partial curve, poor fit], Cn1cccc1Cc1nnc(SCC(=O)Nc2ccc3c(c2)OCO3)n1CCc1ccccc1 28.2 µM [inhibitor, partial curve], COc1cc(NC(=O)COc2cc(O)c3c(c2)OC(C)(C)CC3=O)cc(OC)c1OC 20 µM [inhibitor, partial curve, poor fit], CCN(CC)CCCNC(=O)c1ccc(-c2nc(CN3CCc4ccccc43)c(C)o2)cc1 22.4 µM [inhibitor, single point], Clc1ccc(/C=C/c2nc3ccccc3[nH]2)cc1 20 µM [inhibitor, single point], CCOC(CN1C(=O)[C@](CC(=O)Nc2ccc(C)cc2)(NC(=O)Nc2ccc(C)cc2)c2ccccc21)OCC 43.2 µM [inhibitor, single point], O=C(NCc1cccnc1)c1ccc(COc2ccccc2Br)cc1 17.8 µM [inhibitor, partial curve, poor fit], O=C(CCN1C(=O)C2CC=CCC2C1=O)Nc1nc(-c2ccc(F)c(F)c2)cs1 (stereo not given) 22.4 µM [inhibitor, single point], CC(=NNC(=S)N1CCCCCC1)c1ccccn1 0.158 µM [inhibitor, full curve, poor fit], O=C(Nc1ccn(Cc2ccccc2)n1)c1n[nH]c([N+](=O)[O-])c1Cl 39.8 µM [inhibitor, single point], O=C(CCCCCBr)N1CCC(CC2CC(c3cccc(Br)c3)=NO2)(C(=O)NCC2CCCCC2)CC1 (stereo not given) 31.6 µM [inhibitor, single point], Cc1nnc2ccc(N3CCN(c4cccc(C(F)(F)F)c4)CC3)nn12 22.4 µM [inhibitor, partial curve], CCCCn1c(SCC(=O)Nc2cc(C(F)(F)F)cc(C(F)(F)F)c2)nnc1C(CC)N(C)C (stereo not given) 31.6 µM [inhibitor, single point], COc1ccc(CCNC(=O)C(C)n2nc(C)c3c(C)n(-c4ccc(C)cc4)nc3c2=O)c(OC)c1 (stereo not given) 2.51 µM [inhibitor, partial curve, poor fit], O=C(Nc1cccc(Cl)c1)c1ccc(F)c(S(=O)(=O)NCc2cccs2)c1 25.1 µM [inhibitor, single point], CN1CCc2c(sc3c2C(=O)NC(c2ccc(OC(=O)c4ccc(C(C)(C)C)cc4)cc2)N3)C1 (stereo not given) 12.6 µM [inhibitor, partial curve], COC(=O)c1cc(Cl)ccc1NCC(N)c1ccccc1 (stereo not given) 31.6 µM [inhibitor, partial curve, poor fit], CCC(C(=O)Nc1cc(OC)cc(OC)c1)n1nc(-c2ccc(C)c(C)c2)ccc1=O (stereo not given) 39.8 µM [inhibitor, single point], Cc1cc2nc(-c3ccc(SCC(=O)N4CCc5ccccc54)nc3)[nH]c2cc1C 10 µM [inhibitor, partial curve, poor fit], FC(F)c1nc2ccccc2n1-c1nc(N2CCOCC2)nc(N2CCOCC2)n1 8.63 µM [inhibitor, partial curve, poor fit], CN(CC(=O)Nc1cccc(C(F)(F)F)c1)S(=O)(=O)c1ccc2[nH]c3c(c2c1)CCCC3 35.5 µM [inhibitor, single point], COc1cccc(/C=N/NC(=O)CSc2ccccc2C)c1O 17.8 µM [inhibitor, partial curve], COc1cc(C2CC(=O)c3c([nH]c(C(=O)OC4CCCCC4)c3C)C2)cc(OC)c1OC (stereo not given) 4.47 µM [inhibitor, full curve, poor fit]

Potency, active:
CCC(C)Sc1cc(-c2nc3ccc(C)cn3c2NCc2ccccc2)ccc1OC (stereo not given) 17.8 µM, CC(=O)c1sc(NC(=O)C2(F)C(F)(F)C(F)(F)C(F)(F)C(F)(F)C2(F)F)nc1C 6.31 µM, C[C@@H]1CN([C@@H](C)CO)S(=O)(=O)c2ccc(C#CC3CCCCC3)cc2O[C@@H]1CN(C)Cc1cccnc1 28.2 µM, Cc1ccc2nc(NC(=O)CSCC(=O)OCC(=O)c3ccc(Br)cc3)sc2c1 5.62 µM, C#CCOCCOCCOCCNc1nc(N2CCN(C(=O)CCCCCCCCCCNC(=O)[C@@H](CCSC)n3cc(CCO)nn3)CC2)nc(N2CCN(C(=O)CCCCCCCCCCNC(=O)[C@H]([C@@H](C)CC)n3cc(CCCCCN)nn3)CC2)n1 28.2 µM
